Several values for one entry are separate records, joined by “and”; a condition that tells them apart may be missing. Equal entries are not always repeated. Hit rate of the full screen: of about 16,000 compounds, about 40 (0.2%) were called active. Not shown: some 1% with an inconclusive outcome. Calls come from the whole dose curve; as a rule, active = well fitted activation curve with a large enough effect; inconclusive = small, poorly fitted or top-dose-only effect, or another doubt; inactive = no such curve, though single readings can be large or run the other way. The list shows a part of the results.
% is set by controls: 0 for no effect and ±100 for the full control effect.

This test deals with Rap guanine nucleotide exchange factor 4 (Homo sapiens) (UniProt Q8WZA2). In words: Validation qHTS for agonist of cAMP-regulated guanine nucleotide exchange factor 4 (EPAC2).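 Note: exchange makes BODIPY-GDP fluorescence drop when released from Rap1B; series mostly up to about 150 µM.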 Particulars: EPAC2 Rap1B BODIPY-GDP exchange, fluorescence; activation: active compounds read high. In a few lines: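 Fluorescent exchange assay: 100 nM EPAC2 with 250 nM RAP1B-BODIPY-GDP and 50 uM GDP; compound added, 5 min at room temperature, then read (ex 480/em 540 nm) every 5 min for 30 min. Normalized to 6.5 mM cAMP agonist control.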
Chain of UniProt Q8WZA2 (Q8WZA2 whole entry, looked up): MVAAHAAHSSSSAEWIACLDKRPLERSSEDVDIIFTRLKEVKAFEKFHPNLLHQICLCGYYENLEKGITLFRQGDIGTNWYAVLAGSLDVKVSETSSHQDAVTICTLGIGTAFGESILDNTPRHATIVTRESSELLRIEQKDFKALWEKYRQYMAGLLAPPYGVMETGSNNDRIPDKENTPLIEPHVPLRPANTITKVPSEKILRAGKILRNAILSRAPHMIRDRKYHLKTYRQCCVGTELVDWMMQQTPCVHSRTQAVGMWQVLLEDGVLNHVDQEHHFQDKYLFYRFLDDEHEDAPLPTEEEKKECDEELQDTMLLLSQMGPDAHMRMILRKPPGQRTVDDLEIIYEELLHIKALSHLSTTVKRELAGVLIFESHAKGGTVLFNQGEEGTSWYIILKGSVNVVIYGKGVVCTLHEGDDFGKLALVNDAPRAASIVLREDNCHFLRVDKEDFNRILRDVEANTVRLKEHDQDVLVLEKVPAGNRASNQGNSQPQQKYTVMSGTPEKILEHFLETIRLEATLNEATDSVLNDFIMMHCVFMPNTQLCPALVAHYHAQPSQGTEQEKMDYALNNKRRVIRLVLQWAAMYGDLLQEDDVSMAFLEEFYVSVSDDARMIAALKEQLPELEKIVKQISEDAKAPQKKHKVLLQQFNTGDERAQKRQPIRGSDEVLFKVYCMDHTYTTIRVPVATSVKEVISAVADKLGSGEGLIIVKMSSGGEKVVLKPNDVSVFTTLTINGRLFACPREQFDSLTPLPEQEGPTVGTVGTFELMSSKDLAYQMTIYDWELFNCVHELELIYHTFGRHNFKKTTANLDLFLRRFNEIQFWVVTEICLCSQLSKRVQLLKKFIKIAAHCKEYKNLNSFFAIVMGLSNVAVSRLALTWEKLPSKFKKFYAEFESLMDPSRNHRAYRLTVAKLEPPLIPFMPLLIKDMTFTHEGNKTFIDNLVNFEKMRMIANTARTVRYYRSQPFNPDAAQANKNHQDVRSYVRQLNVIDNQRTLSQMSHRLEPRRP
For orientation: Quantitative high-throughput screening tests each substance at several concentrations.
As for `NC(CSCC(=O)O)C(=O)O` (stereo unspecified), the activation was inactive: -2.18%.

Turning to `O=C(Nc1ccc(/C=C/c2ccc(NC(=O)c3cc(S(=O)(=O)O)c4cccnc4c3O)cc2S(=O)(=O)O)c(S(=O)(=O)O)c1)c1cc(S(=O)(=O)O)c2cccnc2c1O`, the activation is inactive: -38.7%.

Consider `COc1ccc2[nH]cc(CCNc3ncncc3-c3cccc(NS(C)(=O)=O)c3)c2c1`, for which the activation is inactive: 6.24%.

On to `COc1cccc(Nc2ncc3nc(CCc4ccccc4)c(=O)n(CCC#N)c3n2)c1`, for which the activation was inactive: 5.96%.

As to `N=C(CC(O)COc1ccccc1-c1ccccc1)N1CCCCC1` (stereo unspecified), the activation was inactive: -5.25%.

Turning to `Cc1cccnc1-c1cccc2c1OC(CNC(=O)/C=C/c1cccs1)C2` (stereo unspecified), the activation was inactive: 6.73%.

`CN(C)c1ncc2ncc(=O)n(CCc3ccccc3)c2n1`: the activation is inactive: -16.3%.

As to `COc1ccc(CNc2nc(-c3ccccc3OC)nc3ccccc23)c(OC)c1`, the activation is inactive: 3.13%.

As to `CC1(C)Oc2ccc(C#N)cc2[C@@H](OC2=CC(=O)CC2)[C@@H]1O`, the activation was inactive: 0.361% and inactive: -1.29%.

On to `Cc1ncc2c(c1CNS(=O)(=O)N(C)C)CCN(C(=O)c1[nH]c3ccc(Cl)cc3c1C)C2`, for which the activation was inactive: 8.96%.

For the molecule `CC1=CC2C(CC1=O)C(C)=CCC2C(C)C` (stereo unspecified), the activation was inactive: -21.5%.

With `Cc1csc[n+]1CC(=O)c1ccc(I)cc1`, the activation was inactive: -3.87%.

For the molecule `CCNC(=O)[C@@H]1CCCN1C(=O)[C@H](CCCN=C(N)N)NC(=O)[C@H](CC(C)C)NC(=O)[C@@H](Cc1c[nH]c2ccccc12)NC(=O)[C@H](Cc1ccc(O)cc1)NC(=O)[C@H](CO)NC(=O)[C@H](Cc1c[nH]c2ccccc12)NC(=O)[C@H](Cc1cnc[nH]1)NC(=O)[C@@H]1CCC(=O)N1`, the activation was inactive: -4.82%.

On to `NCCCCN`, for which the activation is inactive: -7.16% and inactive: -19.4%.

In the case of `COC(=O)c1ccc(C(=O)N2CCc3c(C(=O)NC(C)c4ccco4)c(OC)cc(=O)n3CC2)cc1` (stereo unspecified), the activation was inactive: -5.31%.

For `CN(Cc1ccc(C(C)(C)C)cc1)Cc1cccc2ccccc12`, the activation is inactive: 20.1% and inactive: -3.64%.

For the molecule `COc1ccc(CNc2cc(-c3ccoc3)ncn2)c(OC)c1`, the activation was inactive: -10.9%.

On to `COc1cc2c(cc1OC)[C@@H]1C(=O)c3ccc4c(c3O[C@@H]1CO2)C=CC(C)(C)O4`, for which the activation was inactive: -12%.

As to `C(=C\c1c[nH]c2ccccc12)/c1cc[n+](C2CCCCC2)cc1`, the activation is inactive: 0.606%.

`CCOC(=O)c1ccc(N(C(=O)c2ccccc2)c2ccccc2)cc1`: the activation is inactive: -10.4%.

`CCCCCN=c1ccn(Cc2ccccc2)c2ccccc12`: the activation is inactive: 2.77%.

Source of the values: PubChem BioAssay AID1645887 (National Center for Advancing Translational Sciences (NCATS), 2021).
